# Results as given in PubChem BioAssay AID504832 (National Center for Advancing Translational Sciences (NCATS), 2011).
# Hit rate of the full screen: of about 310,000 compounds, about 18,000 (5.8%) were called active. Inconclusive results, whose numbers are uncertain, are shown with a selection of clear calls. Calls follow the shape of the dose curve; as a rule, active = well fitted inhibition curve with a large enough effect; inconclusive = small, poorly fitted or top-dose-only effect, or another doubt; inactive = no such curve, though single readings can be large or run the other way. No potency is given beside an inconclusive call; the fits are too rough.
# Assay: Primary qHTS for delayed death inhibitors of the malarial parasite plastid, 48 hour incubation
# Details: P. falciparum luciferase growth in erythrocytes; series mostly up to 28.7 µM
# How it was run: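 Luciferase-expressing parasites in RBCs, 2% Hct / 0.1% parasitemia final; RPMI 1640 + 0.5% Albumax; 37 C, 5% CO2, one generation; luminescence read-out, lower signal = inhibition.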
# Potency is read from the fitted curve at half-maximal effect; tags tell the direction and shape of the fitted curve.
row,SMILES,Potency
1,N/C(=N\S(=O)(=O)c1cc(C(F)(F)F)cc(C(F)(F)F)c1)c1ccc(Cl)cc1,"inconclusive [inhibitor, single point]"
2,Nc1ccc(C(=O)N2CCN(S(=O)(=O)/C=C/c3ccccc3)CC2)cc1[N+](=O)[O-],"inconclusive [inhibitor, partial curve, poor fit]"
3,Cn1nc(C(=O)N2CCN(S(=O)(=O)c3ccc(Cl)cc3)CC2)c2ccccc2c1=O,inactive
4,CCn1cc(C(=O)NCc2cccnc2)c(=O)c2cc(F)c(N3CCN(C(=O)c4ccco4)CC3)cc21,"inconclusive [inhibitor, partial curve, poor fit]"
5,COc1ccc(C2NC(=O)CS2)cc1 (centres undefined),inactive
6,Cc1[nH]c(=O)[nH]c(=O)c1S(=O)(=O)N1CCN(c2ccccc2)CC1,"inconclusive [inhibitor, single point]"
7,O=C(NCc1ccccc1)C1c2ccccc2Oc2ccccc21,inactive
8,CCN1C(=NCCCCO)N[C@@H](c2cccc(C(F)(F)F)c2)C(C(=O)OC)=C1C,"inconclusive [inhibitor, single point]"
9,CC(=O)Nc1ccc(-c2cn3c(n2)SCC3)cc1,inactive
10,CNc1oc(C)nc1S(=O)(=O)c1ccc(C)cc1,inactive
11,COc1ccc(-n2ncc(N(C)n3cccc3)c(Cl)c2=O)cc1,inactive
12,O=C(CN1C(=O)CC(c2ccccc2)=Nc2ccccc21)NC1CCCCC1,active: 9.28 µM
13,CC(C)OC(=O)CSc1nnc2c(n1)[nH]c1ccc(F)cc12,active: 5.86 µM
14,COc1cc2c(cc1OC)CN(C(=O)/C=C/c1ccc(F)cc1)CC2,"inconclusive [inhibitor, single point]"
15,CCCCNc1nc2ccccc2n1CC(=O)Nc1ccc2c(c1)OCCO2,"inconclusive [inhibitor, single point]"
16,Cc1cc(-c2ccccc2)nc(Oc2cccc(C(F)(F)F)c2)c1S(C)(=O)=O,"inconclusive [inhibitor, partial curve, poor fit]"
17,O=C1OC(c2ccc(Br)cc2)=N/C1=C\N1CC2CC(C1)c1cccc(=O)n1C2 (centres undefined),"inconclusive [inhibitor, partial curve]"
18,CN(C)S(=O)(=O)c1ccc2nnn(OCC(=O)NC34CC5CC(CC(C5)C3)C4)c2c1,"inconclusive [inhibitor, single point]"
19,O=C(CSc1nc(-c2ccccc2)cs1)NC(=O)NCc1ccco1,"inconclusive [inhibitor, single point]"
20,CC(=O)Nc1ccc(OC(=O)c2ccccc2N)cc1,inactive
21,COc1cccc(CN(Cc2ccccc2F)S(=O)(=O)c2ccc(S(=O)(=O)NCc3ccccc3)cc2)c1,"inconclusive [inhibitor, single point]"
22,Cc1cccc(C)c1OCC(=O)Nc1cccc(C(=O)O)c1,inactive
23,Cc1cccc([C@@H]2[C@@H]3C(=O)N(Cc4ccccc4)C(=O)[C@@H]3[C@]3(Cc4ccc(Cl)cc4)C(=O)N(c4cccc(Cl)c4)C(=O)N23)c1,active: 4.15 µM

row,SMILES,Potency
1,N#CCC(=O)Nc1ccc(C(=O)NNC(=O)CCN2CCN(c3ccccc3)CC2)cc1,"inconclusive [inhibitor, single point]"
2,Cc1ccc(-n2[nH]c3c4c(ccc3c2=O)C(=O)c2ccccc2C4=O)cc1,inactive
3,CCOc1ccc(C(=O)Nc2ccc(C(F)(F)F)n(C)c2=O)cc1,inactive
4,CC(C)(C)C1=NN(c2ccc([N+](=O)[O-])cc2)C(c2ccccc2)C1 (centres undefined),"inconclusive [inhibitor, single point]"
5,Cc1ccc2nc(NC(=O)c3ccc(NS(=O)(=O)c4cccs4)cc3)sc2c1,"inconclusive [inhibitor, single point]"
6,CC(C)c1ccc(CN(C)CC(O)c2ccccc2)cc1 (centres undefined),active: 2.62 µM
7,Cc1ccc2[nH]c(=O)c(C3=NN(C(=O)CCC(=O)O)C(c4cccs4)C3)c(-c3ccccc3)c2c1 (centres undefined),"inconclusive [inhibitor, partial curve, poor fit]"
8,CCc1ccc(C2CC(c3ccccc3Cl)Nc3nc(N)nn32)cc1 (centres undefined),"inconclusive [inhibitor, single point]"
9,COc1ccc(C(c2nnnn2C(C)(C)C)N2CCN(c3nc4ccccc4s3)CC2)cc1 (centres undefined),"inconclusive [inhibitor, single point]"
10,Cc1cc(C(=O)CS(=O)(=O)c2ccccc2)cc(C)c1OC(=O)N(C)C,"inconclusive [inhibitor, single point]"
11,Cc1cccc(CNc2ccc(S(=O)(=O)N3CCCCC3)cc2)c1,"inconclusive [inhibitor, single point]"
12,CCc1ccc(/C=C/C(=O)c2cc(Br)ccc(=O)c2O)cc1,"inconclusive [inhibitor, single point]"
13,CCN1CCN(c2ncnc3sc4c(c23)CCC(C)C4)CC1 (centres undefined),"inconclusive [inhibitor, single point]"
14,COc1ccccc1C(=O)NCCc1nc2ccccc2n1C,inactive
15,Cc1cc(C)cc(N(C(=O)CCC(=O)Nc2cc(C)on2)C(C(=O)NC2CCCC2)c2ccco2)c1 (centres undefined),"inconclusive [inhibitor, partial curve, poor fit]"
16,CCN(CC)S(=O)(=O)c1ccc(N2CCCC2)c(NC(=O)Cc2ccccc2)c1,"inconclusive [inhibitor, partial curve]"
17,COc1cccc(NC(=O)CN(C)C(=O)CCNS(=O)(=O)c2ccc(C)cc2)c1,"inconclusive [inhibitor, partial curve, poor fit]"
18,COC(=O)Cc1c[nH]c2cccc(OCC(O)CN(Cc3ccccc3)C(C)C)c12 (centres undefined),"inconclusive [inhibitor, partial curve, poor fit]"
19,CSc1nsc(SC)c1C(=O)Nc1ccc(C(C)(C)C)cc1,"inconclusive [inhibitor, single point]"
20,CCc1nc(NCCO)c(C#N)c2c1CSC(C)(C)C2,"inconclusive [inhibitor, single point]"
21,O=C(Nc1ccccc1Cl)/C(Cl)=C(\Cl)S(=O)c1ccccc1 (centres undefined),"inconclusive [inhibitor, full curve]"
22,CC1=CC(=O)NS(=O)(=O)O1,inactive
23,N#C/C(=C(/O)CCCl)c1ccccn1,inactive

row,SMILES,Potency
1,Cc1cc(NC(=O)C2CCCCC2)nc2c1c(=O)oc1ccccc12,inactive
2,CC(C)N1C(=O)/C(=C/C=C/c2ccco2)C(=O)N(Cc2ccco2)C1=O,inactive
3,COCCn1c(C)cc(/C=C2/NC(=O)N(c3ccc(Cl)cc3)C2=O)c1C,"inconclusive [inhibitor, single point]"
4,CCc1sc(C(=O)N2CCN(c3ccc(F)cc3)CC2)cc1C,inactive
5,CN(Cc1ccccc1)c1ccc(C(CC(N)=O)NC(=O)c2ccc(Br)cc2)cc1[N+](=O)[O-] (centres undefined),"inconclusive [inhibitor, single point]"
6,O=C(C1Cc2ccccc2CN1C(=O)c1ccco1)N1CCN(c2ccccc2)CC1 (centres undefined),"inconclusive [inhibitor, single point]"
7,Cc1csc(NC(=O)CCc2ccc(S(=O)(=O)N3CCOCC3)cc2)n1,"inconclusive [inhibitor, partial curve]"
8,Cc1c(N=Nc2c(O)[nH]c(=S)[nH]c2=O)c(=O)n(-c2ccccc2)n1C,inactive
9,CCOC(=O)C1(CCc2ccccc2)CCN(Cc2cccc3nccnc23)CC1,"inconclusive [inhibitor, single point]"
10,CC(C)CC(=O)N1CCC(N(CCc2ccccc2)Cc2ccccc2)CC1,"inconclusive [inhibitor, partial curve, poor fit]"
11,Cc1ccc(C(CNS(=O)(=O)c2ccc(F)cc2C)N2CCN(C)CC2)cc1 (centres undefined),"inconclusive [inhibitor, partial curve]"
12,Cc1ccc(NC(=O)CSCC(=O)Nc2ccc(S(=O)(=O)N3CCCC3)cc2)cc1,"inconclusive [inhibitor, single point]"
13,Cc1ccc(CNC(=O)CSc2c3c(nc4cc(Cl)ccc24)CCCC3)o1,active: 14.7 µM
14,Cc1cc(NC(=O)c2ccc(-c3ccc(F)c(Cl)c3)o2)no1,inactive
15,Cc1ccc(OC(=O)Nc2ccccc2)cc1,active: 10.4 µM
16,CC(C)c1ccccc1OCC(=O)N(C)CC(=O)Nc1ccc(F)cc1,"inconclusive [inhibitor, partial curve, poor fit]"
17,COc1cc(C(=O)NCC2(c3ccccc3)CCCC2)ccc1OC(C)C,active: 14.7 µM
18,COc1ccc(S(=O)(=O)N2CCN(Cc3ccco3)CC2)cc1,inactive
19,O=C(c1ccc2c(c1)OCO2)C1CCCN(C2CCN(CCc3ccccc3)CC2)C1 (centres undefined),active: 2.62 µM
20,Cc1cccc2c(N=Nc3ccc(S(=O)(=O)Nc4cccc(Cl)c4)cc3[N+](=O)[O-])c(O)[nH]c12,active: 6.57 µM
21,CC(=O)Nc1ccc(NC(=O)C(C)n2nc([N+](=O)[O-])c(Br)c2C)cc1 (centres undefined),"inconclusive [inhibitor, partial curve, poor fit]"
22,Cc1ccc(NC2CCCN(C(=O)c3ccc(-n4ccnc4)cc3)C2)cc1C (centres undefined),"inconclusive [inhibitor, partial curve, poor fit]"
23,COC(=O)C1C(=O)C2=C(CC1C)NC(C)=C(C(=O)OC1CCCC1)C2c1ccc(N(C)C)cc1 (centres undefined),active: 5.22 µM
